Measured values taken from PubChem BioAssay AID2675 (National Center for Advancing Translational Sciences (NCATS), 2010).
The campaign covered roughly 280,000 compounds. About 100 (0.036%) were called active. This list was built around the results that the source calls inconclusive (neither active nor inactive); the mix of calls is not that of the screen. Calls come from the whole dose curve; as a rule, active = well fitted inhibition curve with a large enough effect in the signal ratio, with a control signal flat (not every such curve was filed as active); inconclusive = small, poorly fitted or top-dose-only effect, or effect the other way, or a change in a side signal; inactive = no such curve, though single readings can be large or run the other way; the % refers to the signal ratio. Where the call is inconclusive, the potency comes from a doubtful curve fit. A note “side channel” means that the fit belongs to a control or component signal, not to the main read-out.
Potency is the fitted concentration of half-maximal effect; tags give direction and shape of the fitted curve or compound fluorescence and quenching.

The compounds below were run against Muscleblind-like protein 1 (Homo sapiens) (UniProt Q9NR56) (assay: qHTS Assay for Inhibitors of MBNL1-poly(CUG) RNA binding). Conditions: TR-FRET MBNL1-His/biotin-(CUG)12 binding, 665/545 ratio; series mostly up to 57.5 µM.
UniProt Q9NR56, sequence (Q9NR56 whole entry, looked up): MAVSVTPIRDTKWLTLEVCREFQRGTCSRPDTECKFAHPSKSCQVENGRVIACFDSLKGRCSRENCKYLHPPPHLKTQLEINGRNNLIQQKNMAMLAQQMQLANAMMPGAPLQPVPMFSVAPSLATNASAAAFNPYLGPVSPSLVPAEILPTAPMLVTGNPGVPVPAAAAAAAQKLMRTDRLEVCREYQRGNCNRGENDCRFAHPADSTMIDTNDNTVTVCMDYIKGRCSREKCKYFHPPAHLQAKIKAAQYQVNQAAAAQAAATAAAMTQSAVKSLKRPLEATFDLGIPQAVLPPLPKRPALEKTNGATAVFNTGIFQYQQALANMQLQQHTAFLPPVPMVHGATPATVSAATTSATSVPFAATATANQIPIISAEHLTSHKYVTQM
Summary of the method: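 Ratiometric TR-FRET (665 over 545 nm, excitation 340 nm) tracks disruption of MBNL1-His/biotin-(CUG)12 complex after 60 min at room temperature, with compounds at 92 nM to 58 uM final.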
For O=C(O)c1ccccc1C(=O)N1N=C2/C(=C/c3cccc([N+](=O)[O-])c3)CCCC2C1c1cccc([N+](=O)[O-])c1 (stereo not drawn), the Potency was “inactive”.
With CCn1c(SCC(=O)N/N=C/c2ccncc2)nc2ccccc21 the Potency was inconclusive: 31.6 µM [quencher, side channel, partial curve].
In the case of CC(C)c1cc(O)c(-c2ccccc2)c(=O)n1-c1ccc(Cl)cc1, the Potency is reported as “inactive”.
N=c1ccn(Cc2ccccc2Cl)cc1 was tested, and the Potency was “inactive”.
With N#C/C(=C\c1ccco1)Sc1nc2ccccc2s1 the Potency was inconclusive: 15.8 µM [quencher, side channel, partial curve].
With O=C(O)C1CN(c2ncccc2[N+](=O)[O-])C1 the Potency was inconclusive: 20 µM [quencher, side channel, single point].
In the case of CC1=NNC(=O)/C1=C\c1cn(-c2ccccc2)nc1-c1ccc(Cl)cc1, the Potency is reported as “inactive”.
In the case of CC1=NCCN1S(=O)(=O)c1cc([N+](=O)[O-])ccc1Cl, the Potency is reported as inconclusive: 22.4 µM [quencher, side channel, partial curve].
Cc1ccc([N+](=O)[O-])cc1N1C(=O)CS/C1=N\NC(=O)c1cccnc1 was tested, and the Potency was inconclusive: 44.7 µM [quencher, side channel, single point].
In the case of O=[N+]([O-])c1cc(Oc2cccnc2)cc([N+](=O)[O-])c1, the Potency is reported as inconclusive: 8.91 µM [quencher, side channel, single point].
For Cc1c(S(=O)(=O)N2CCOCC2)c(=O)n(C)c(=O)n1C, the Potency was inconclusive: 4.47 µM [quencher, side channel, single point].
For COc1ccc(/C=N/Nc2ccc(C(=O)O)cc2)cc1Br, the Potency was inconclusive: 28.2 µM [quencher, side channel, single point].
In the case of CCN(CC)c1ccc(/C=C(\C#N)c2ccccn2)cc1, the Potency is reported as inconclusive: 20 µM [quencher, side channel, partial curve].
Cc1ccc(N2CCN(C(=O)N3CCOCC3)CC2)c(C)c1 was tested, and the Potency was “inactive”.
For CN(C)c1ccc(C(C(=O)NCc2ccccc2)N(Cc2cccnc2)C(=O)c2snc(C(N)=O)c2N)cc1 (stereo not drawn), the Potency was inconclusive: 14.1 µM [quencher, side channel, partial curve].
In the case of Nc1ccc(N=Nc2ccccc2Cl)c(N)n1, the Potency is reported as inconclusive: 15.8 µM [quencher, side channel, partial curve].
In the case of O=C(Cc1nc(-c2ccc(Br)s2)cs1)NCCN1CCOCC1, the Potency is reported as inconclusive: 17.8 µM [quencher, side channel, partial curve].
In the case of CN(C)C(=O)CSc1cccc2cccnc12, the Potency is reported as “inactive”.
With CC(N=Cc1cccc(O)c1O)c1ccccc1 (stereo not drawn) the Potency was inconclusive: 25.1 µM [quencher, side channel, partial curve].
For O=C1CCNc2cc3ccccc3cc21, the Potency was inconclusive: 5.01 µM [quencher, side channel, full curve].
With Cc1ccc(C)c(NC(=O)CSc2nc3nc(-c4cccs4)cc(C(F)(F)F)c3c(=O)[nH]2)c1 the Potency was “inactive”.
With O=C(NCc1cccnc1)Nc1cccc([N+](=O)[O-])c1 the Potency was inconclusive: 14.1 µM [quencher, partial curve].
For Cc1nc(SCC(=O)NNC(=O)c2cccs2)[nH]c(=O)c1C, the Potency was inconclusive: 158 µM [inhibitor, single point].
For O=C(NCc1ccccc1)c1onc(CSc2nc3ccccc3[nH]2)c1C(=O)NCc1ccccc1, the Potency was “inactive”.
Cc1ccc(NC(=O)c2ccc(-n3cncn3)c([N+](=O)[O-])c2)cc1 was tested, and the Potency was inconclusive: 14.1 µM [quencher, side channel, partial curve].
With O=C(CCN1CCN(S(=O)(=O)c2cccc([N+](=O)[O-])c2)CC1)Nc1ccccc1F the Potency was inconclusive: 28.2 µM [quencher, side channel, single point].
COCCCNc1nc2ccccc2nc1NS(=O)(=O)c1ccc(Cl)cc1 was tested, and the Potency was “inactive”.
For Cc1ccc(S(=O)(=O)C2(C(=O)Nc3nccs3)CC2)cc1, the Potency was inconclusive: 0.794 µM [quencher, side channel, single point].
With N#C/C(=C/c1ccc(Oc2ccc([N+](=O)[O-])cn2)cc1)C(=O)N1CCOCC1 the Potency was inconclusive: 1.41 µM [quencher, side channel, full curve].
In the case of Cc1ccc(NC(=O)c2nc[nH]c2C(=O)N[C@@H](C)c2ccccc2)cc1, the Potency is reported as “inactive”.
Cc1cc(C)cc(N(CC(=O)Nc2ccccc2-c2ccccc2)S(=O)(=O)c2ccccc2)c1 was tested, and the Potency was inconclusive: 35.5 µM [fluorescent, side channel, single point].
With COc1nc(N)c(C#N)c(-c2ccc(N(C)CCC#N)cc2)c1C#N the Potency was inconclusive: 39.8 µM [fluorescent, side channel, single point].
In the case of CN(C)c1cc(-c2ccc(Br)cc2)oc(=O)c1Cl, the Potency is reported as inconclusive: 8.91 µM [quencher, side channel, full curve, poor fit].
For CS(=O)(=O)c1ccc2nc(NC(=O)c3cccs3)sc2c1, the Potency was “inactive”.
CC(=O)NCCn1c(SCc2cc(=O)n3cc(Cl)ccc3n2)nc2ccccc2c1=O was tested, and the Potency was inconclusive: 1.78 µM [quencher, side channel, full curve, poor fit].
In the case of Cc1cc(C)nc(SCc2ccc(C(=O)N/N=C/c3ccncc3)cc2)n1, the Potency is reported as inconclusive: 25.1 µM [quencher, side channel, partial curve].
In the case of Cc1cc(C)c(C(=O)/C=C/C=C/c2ccccc2)c(=O)[nH]1, the Potency is reported as “inactive”.
For Nc1nn(S(=O)(=O)c2cccc3nsnc23)cc1-c1ccc(Br)cc1, the Potency was inconclusive: 28.2 µM [quencher, side channel, partial curve].
In the case of COC(=O)C1=C(C(=O)OC)SC(=C2C(=S)C(C)(C)N(C(=O)C(C)C)c3ccccc32)S1, the Potency is reported as “inactive”.
Brc1ccc(-c2cnc3n2CCCC3)cc1 was tested, and the Potency was inconclusive: 39.8 µM [quencher, side channel, single point].
In the case of Cc1cccc(NS(=O)(=O)c2cccc(C(=O)NCC(C)(C)N3CCOCC3)c2)c1, the Potency is reported as “inactive”.
In the case of O=C(/C=C/c1ccccc1)N/C(=C\c1ccco1)C(=O)O, the Potency is reported as inconclusive: 28.2 µM [quencher, side channel, single point].
With CC1CCN(C(C(=O)NC2CCCCC2)c2cc3c(cc2[N+](=O)[O-])OCO3)CC1 (stereo not drawn) the Potency was inconclusive: 25.1 µM [quencher, side channel, single point].
In the case of O=C1CSC(=S)N1c1cccnc1, the Potency is reported as “inactive”.
With Oc1ccc(Br)cc1C1Nc2ccccc2S1 (stereo not drawn) the Potency was inconclusive: 3.55 µM [fluorescent, side channel, single point].
For Cc1ccc(Cl)cc1NC(=O)c1cnn2c1NC(c1ccco1)CC2C(F)(F)F (stereo not drawn), the Potency was “inactive”.
With Nc1ccc(O)c2c1C(=O)c1ccccc1C2=O the Potency was inconclusive: 8.91 µM [quencher, side channel, partial curve].
With COc1ccccc1N1CCN(C(=O)C(C)CS(=O)(=O)c2ccc3c(c2)NC(=O)CS3)CC1 (stereo not drawn) the Potency was “inactive”.
With COc1ccc(-c2ncccc2OC(=O)C23CC4CC(CC(C4)C2)C3)cc1OC the Potency was “inactive”.
With Cc1ccc2[nH]c(O)c(N=O)c2c1 the Potency was inconclusive: 25.1 µM [quencher, side channel, partial curve].
For CCc1ccc(C(=O)c2oc3nc(C)cc(C)c3c2N)cc1, the Potency was inconclusive: 31.6 µM [quencher, side channel, partial curve].
In the case of Cc1ccc(CN(C)C(=O)c2ccccc2Sc2ccccc2C#N)cc1, the Potency is reported as inconclusive: 17.8 µM [quencher, side channel, partial curve].
In the case of O=C(Nc1c[nH]c(=O)[nH]c1=O)c1ccc([N+](=O)[O-])cc1, the Potency is reported as inconclusive: 39.8 µM [quencher, partial curve].
For Cc1ccc(NC(=O)N2CCc3ccccc32)cc1, the Potency was inconclusive: 39.8 µM [quencher, side channel, single point].
CC(=O)NC1=NC(=O)/C(=C/c2cc(C)n(-c3cccc(C(=O)O)c3)c2C)S1 was tested, and the Potency was inconclusive: 20 µM [quencher, side channel, partial curve].
COc1ccc(OC)c(C2C(C(=O)c3ccc(C)o3)=C(O)C(=O)N2c2cc(C)on2)c1 (stereo not drawn) was tested, and the Potency was inconclusive: 25.1 µM [quencher, side channel, partial curve].
With COC(=O)Cc1c[nH]c2cccc(OCC(O)CN(Cc3ccc([N+](=O)[O-])cc3)C(C)(C)C)c12 (stereo not drawn) the Potency was inconclusive: 11.2 µM [quencher, partial curve].
For O=C(NCCCN1CCCC1=O)Nc1ccc([N+](=O)[O-])cc1, the Potency was inconclusive: 17.8 µM [quencher, side channel, partial curve].
For CCSc1nnc(C)c(=O)n1COC(=O)c1ccc(S(=O)(=O)N2CCCC2)cc1, the Potency was inconclusive: 158 µM [inhibitor, partial curve, poor fit].
For O=C(CN(C1CCCCC1)C1CCCCC1)N1CCc2ccccc2C1, the Potency was “inactive”.
In the case of COc1cc(C2Nc3ccc4ncccc4c3C3=C2C(=O)CCC3)ccc1O (stereo not drawn), the Potency is reported as inconclusive: 25.1 µM [quencher, side channel, partial curve].
Cc1c[n+](CC(=O)c2ccccc2)c(C)cn1 was tested, and the Potency was inconclusive: 5.62 µM [quencher, side channel, partial curve].
COC(=O)[C@H]1[C@H]2C[C@@H]3c4[nH]c5cc(OC)ccc5c4CCN3C[C@H]2C[C@@H](OC(=O)c2cc(OC)c(OC)c(OC)c2)[C@@H]1OC was tested, and the Potency was inconclusive: 39.8 µM [quencher, side channel, single point].
